# Source: the supplement of paper PMC11417369
# ± gives the standard deviation of the averaged measurements. This is one part of the list.
# Tested on: PfAP2-LT AP2 domain (GST-tagged)
# Experiment: gcPBM binding intensity (ln(normalized median fluorescence intensity)); higher = stronger DNA binding
# In short: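 Probes on an Agilent 4 × 180k array were primer-extended, double-stranded and 36 bp long, taken from intergenic genomic regions, with negative controls added. GST-tagged P. falciparum DNA-binding domains from E. coli, about 25 μg on average, were applied to the array for 1 h in 1× PBS containing 1% milk, 0.2 mg/ml BSA, 0.5% salmon testes DNA and 0.03% Triton X-100. Binding intensity, obtained after Alexa488 anti-GST antibody detection and a 488 nm scan, is the highest Masliner-normalised natural-log median intensity across replicate spots of either probe orientation.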
row,Sequence,gcPBM binding intensity (ln)
1,TATTTAAATGGATGCACACATGCATTAAATAAAATA [CACACA_site3433],8.81 ± 0.45
2,TGTAATGTTTACAACACACAAATTATAAATACAAAA [CACACA_site5047],8.87 ± 0.44
3,CTATATCATTTTCTAGCACACACATTGTTATTACCT [CACACA_site8204],9.48 ± 0.44
4,GAATATAAACCTATTACACACATCTATATGTACATT [CACACA_site1914],9.19 ± 0.44
5,TTTTTTATGCTAACTTCTTTTTCCTTATAAAATTGG [TGCATGCA_negctrl_site598],8.44 ± 0.54
6,ATTTTTTTTATTATTACACACATATAACAAAAAAAT [CACACA_site6934],8.69 ± 0.38
7,TATTTATAAATGAACACACACGCAATTTGAATCGAA [CACACA_site3371],9.23 ± 0.3
8,ATATATATATTATATGCACACTTATATTTCATTAGA [CACACA_site5439],8.8 ± 0.45
9,TTTTTATATTTCAACATATCACAATTTTATATATCT [CACACA_negctrl_site178],8.63 ± 0.5
10,AACACATACAGATATGCACACATTTTATTCCATTAT [CACACA_site5565],9.25 ± 0.3
11,TAAATATTAACAATCGCACACATATTATTTTTCCAA [CACACA_site1626],8.91 ± 0.32
12,GAATATATATTCATATGTACACAATTTATGTATTAT [XGTACX_site4719],8.96 ± 0.33
13,AAGGTAAACAGACACACACACATACAAAAAAAAAAA [CACACA_site3768],9.84 ± 0.63
14,ATAATTCTTTTACTGTGTACATATTATCACTTATTT [XGTACX_site2456],9.12 ± 0.47
15,CATTATGTTGTAAATACACACATACAGATACATACA [CACACA_site4565],9.16 ± 0.36
16,TTTTTTGGTTTTCATGCACACAATTTATAAATCTAT [CACACA_site3106],9 ± 0.45
17,ATATGCGTTTGCAAATGTACATATTATTTATATATA [XGTACX_site7128],8.8 ± 0.34
18,TAAAGGCAAACAAACACACACACATAAATACAGATA [CACACA_site5204],9.77 ± 0.3
19,TGGAAACAATGACACACACACAAAAAAAAAAAAAAA [CACACA_site7494],9.44 ± 0.49
20,TTTTGTTTTTGTAGAGTGCATAAAGAAGATATGTAT,8.47 ± 0.37
21,TATAAATACTTAGAAACACACAAAAATATTTTATAA [CACACA_site7259],8.64 ± 0.47
22,ATAATAATATTTCTATGTACTTATTTTATGTATTAG [XGTACX_site1747],8.8 ± 0.49
23,TTATCTCTACAAAGTGCACACACGTAAAAACATATA [CACACA_site3957],9.09 ± 0.35

row,Sequence,gcPBM binding intensity (ln)
1,GTAGGGGAAAAAAAAACACACAAAAAACAACAGATC [CACACA_site1187],9.44 ± 0.56
2,TGTAATTGTTTAAAGGGTACATATATCAGATGTCTT [XGTACX_site5877],8.7 ± 0.4
3,AATACCATAATCAATGCACACATAACAAAATATTAT [CACACA_site8873],9.32 ± 0.46
4,TACGAAAAAAAAAAAAAAAAAAAAAAACACAAAAAA [CACACA_negctrl_site1643],8.44 ± 0.63
5,TTTTAATATTTTAAGAGTACAGAAATATATAATATG [XGTACX_site4955],8.22 ± 0.44
6,CATATAAATATATATACACACACACCGTAATACATA [CACACA_site9158],9.8 ± 0.26
7,ATTTTATAACATTCATGTACACATTTCATTTATTTG [XGTACX_site3028],8.95 ± 0.49
8,AGAGACACTTTTTATTGTACAAGAGGAGGTTACCTT [XGTACX_site8768],8.63 ± 0.35
9,TTTTTATATTTTATAGTGCAAAAACTTACATAAAAT,8.37 ± 0.5
10,ATATAATGGACCATAGTGCATAAAAATAACAAAAAA [GTGCAC_site9558],8.96 ± 0.6
11,TGGAAATATATATATATATATACATATATATATAGC [XGTACX_negctrl_site107],8.89 ± 0.34
12,TATTTTTTTTCTTTATTTATAACGCTCAATATATTC [GTGCAC_negctrl_site265],8.7 ± 0.51
13,TATGAAGAAAAGAATTGTACGATGTTTATTTTGTAT [XGTACX_site8614],8.76 ± 0.4
14,TGTTAATAGAAATACGTGCACACTAAAGGGAAAACA [CACACA_site1485],9.11 ± 0.47
15,TTGTTATCTACCTGTAGTACATATATTATGTAATAT [XGTACX_site735],8.84 ± 0.47
16,TAAATATATATATACACACACACCAAAGCAATAGAT [CACACA_site2940],9.79 ± 0.2
17,TTATATATACCTAAGACACACACATATATATATATA [CACACA_site8153],9.705 ± 0.035
18,ATTAAATATGTCAAGTGTACAAAATGTAAAAAAAAA [XGTACX_site4119],8.97 ± 0.59
19,GCCATTGTACCATCCACACACATATAAATATGTATA [CACACA_site7303],9.29 ± 0.39
20,TATATAACATATAACACACATACTTAGTATTACATA [CACACA_site3099],8.82 ± 0.38
21,ACAGTATCAATATGGATAAAAATGTCCATATGCCTG [TGCATGCA_negctrl_site482],8.83 ± 0.38
22,ACATGTGAACATTCAATGCACACGATGTAATTATAC [CACACA_site14],9.33 ± 0.34
23,ATGTGTTAAAAATGCACACAAAAAAATATACATATA [CACACA_site295],9.29 ± 0.37

row,Sequence,gcPBM binding intensity (ln)
1,ATATTATATATATACACACACACATGCATGCACCTA [CACACA_site106],9.95 ± 0.27
2,TTTTTTAAATATATGGTGCATAGAAAGATATTATAC [GTGCAC_site9984],8.41 ± 0.41
3,TTTAAAAAAAGCAGTACATGCAAAATAATAACAAGC [TGCATGCA_site392],9.2 ± 0.48
4,CAATTATATAATTGAAGTACTAGGAAAGATATATAT [XGTACX_site5459],8.85 ± 0.45
5,TAAAAAAATATTACATGTACATAAAATATATATATA [XGTACX_site4633],8.73 ± 0.47
6,CTTAAATTTTACTGAAGTACAAAATCGGTTCAATGA [XGTACX_site3292],8.4 ± 0.45
7,GGGAAAAAAAAAAGCACACATACGTAAATATATAAC [CACACA_site226],9.1 ± 0.49
8,TATACATATTTTTTTTGTACATATATAATATATATA [XGTACX_site2399],8.62 ± 0.39
9,AATTAAATTCGGTACTGTACATTTCAAAAATATACG [XGTACX_site48],8.65 ± 0.32
10,ATTCTACTTTTATTTATTTATTTGTTTATATATATA [XGTACX_negctrl_site609],8.99 ± 0.47
11,GAATGAATACGTTTTACACACTTGAATCTAATTTCA [CACACA_site6593],8.86 ± 0.47
12,TTTTTTATTCATGTAACACACATTTAATTATGAATT [CACACA_site2706],8.74 ± 0.4
13,ATAAATACATATGTGTGTACACATTATATATATATA [XGTACX_site1486],9.28 ± 0.37
14,GAAAAATTAAAACCTACACACACATTTAAAAAAAAA [CACACA_site9005],9.37 ± 0.39
15,ATATATATATAATCATCACACATGCAGCCCTGATGA [CACACA_site5500],9.04 ± 0.38
16,TATATATTACATACATGTACCCAAAAAAAAAAAAAA [XGTACX_site1168],8.57 ± 0.43
17,TATAAATATAAATATACACACATATATATATATATA [CACACA_site1678],9.38 ± 0.13
18,TTGCATTAATTTATGTGTACATATAAATTTTTATTT [XGTACX_site3060],8.84 ± 0.54
19,ATCAGTCGGCAGGACAGTACACAGTAGCCAGAAAAT [XGTACX_site2550],9.22 ± 0.52
20,CTTATAGGTCATTTCCTTGACCCCCTTTGTTGTACT [CACACA_negctrl_site551],8.77 ± 0.61
21,GTGTAGATATTGAAATGTACTCTCCATATAAAATAA [XGTACX_site4713],8.54 ± 0.39
22,AAAGAATTTGCATATACACACAAAAAAATATATACA [CACACA_site386],9.05 ± 0.48
23,ATATATATATATATATGTACTTATTTATTTATATTA [XGTACX_site4646],9.27 ± 0.71

row,Sequence,gcPBM binding intensity (ln)
1,TTACGATACTTTAGGTGTACACAAATATACATGAAT [XGTACX_site4322],8.97 ± 0.54
2,GCCCCCTAAAAAATTACACACGAAAAAAATGAATTT [CACACA_site9128],9.545 ± 0.0071
3,TTTTTTTTTTTTTTATGTACACATCTAAAAAAAAGG [XGTACX_site2067],8.23 ± 0.4
4,GGTCTAACAACATGCGCACACACATGAATATTCATA [CACACA_site1539],9.47 ± 0.19
5,TAAGTATAAAAAAATAGTACAATTATGAAATATCGT [XGTACX_site2529],8.79 ± 0.39
6,TTTAACAAGTTAAACACACATACATATATACATATA [CACACA_site2536],8.8 ± 0.29
7,AACAAAATTGAAGGAACACACATACATATTTATATA [CACACA_site6227],9.07 ± 0.41
8,AAAAAATTAGATTATGCACACACACTAATAAATAAT [CACACA_site8604],9.38 ± 0.32
9,CATATAAATACATGCACACAAAAATATCAATACATT [CACACA_site2392],9.3 ± 0.39
10,TTTATTTAAGAAAAATGTACAGGTTCATTTCATAAT [XGTACX_site27],8.41 ± 0.43
11,TTAAAAAAAAAACACACACACATACCCATATATATA [CACACA_site5768],9.825 ± 0.021
12,TATAAAAATATATATATATATATATATATAATATGT [TGCATGCA_negctrl_site85],9.06 ± 0.2
13,ATTTGTTCCTTGGGAGTTTACTTTTTTTTAATTTTA [CACACA_negctrl_site638],8.76 ± 0.47
14,TTCTTTTTAATTAATACACACACACCCATATATATA [CACACA_site8719],9.47 ± 0.27
15,AAAAAAAAAAAACACACACACACACTAGTATATAAA [CACACA_site4783],10.1 ± 0.2
16,AATACTTATTATGAAACACACACCAAAACTACATAA [CACACA_site270],9.46 ± 0.19
17,AAGAAAAAAAAAAATATATATACATATATATATATA [TGCATGCA_negctrl_site485],9.38 ± 0.47
18,AATACATATAATACAACACACAAGTAATATAAACCT [CACACA_site3597],9.34 ± 0.29
19,GGATATAACAAACACACACACACATATATATATATT [CACACA_site4141],9.97 ± 0.16
20,TTTAAATGAAAAAAAGGTACACAATATTATTCTTAT [XGTACX_site8612],8.55 ± 0.45
